{"source": "PubChem BioAssay AID2546", "about": "(National Center for Advancing Translational Sciences (NCATS), 2010)", "note": "The whole screen tested about 310,000 compounds, of which about 11,000 (3.5%) were called active. Inconclusive results, whose numbers are uncertain, are shown with a selection of clear calls. Calls come from the whole dose curve; as a rule, active = well fitted inhibition curve with a large enough effect; inconclusive = small, poorly fitted or top-dose-only effect, or effect the other way; inactive = flat fitted curve, though single readings scatter. No potency is given beside an inconclusive call; the fits are too rough. % is set by controls: 0 for no effect and ±100 for the full control effect; potency is the fitted concentration of half-maximal effect; tags give direction and shape of the fitted curve."}
{"test": "VP16 counterscreen qHTS for inhibitors of ROR gamma transcriptional activity;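 note: Gal4-VP16 expression switched on by copper sulfate through the metallothionein promoter; nearly all actives have a fitted effect of over 50% in size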", "settings": "Drosophila S2 Gal4-VP16 UAS-luciferase, luminescence, 20 h; activity, negative = inhibition: at 53.6 µM (top of the series)"}
{"smiles": "CC1(C(=O)OCC(=O)Nc2nc(-c3ccc(F)c(F)c3)cs2)CC1(Cl)Cl", "note": "(stereo not given)", "Potency": "inconclusive [inhibitor, single point]"}
{"smiles": "Cn1cccc1C(=O)NCCc1ccccc1", "Potency": "active: 12.6 µM"}
{"smiles": "CCOc1ccccc1C(=O)N1CCC(n2nnc3cc(C(F)(F)F)ccc32)CC1", "activity, negative = inhibition": "inactive: -15.6%"}
{"smiles": "Cc1cccc(C(=O)O/N=C/c2c(N3CCOCC3)n(C)c3ccccc23)c1", "Potency": "active: 3.55 µM"}
{"smiles": "CCN(C(=O)c1ccc2c(Cl)c3c(nc2c1)CCC3)c1cccc(C)c1", "Potency": "inconclusive [inhibitor, single point]"}
{"smiles": "CCC1CCCCN1C(=O)c1cc(COc2ccc(-n3cncn3)cc2)on1", "note": "(stereo not given)", "Potency": "inconclusive [inhibitor, single point]"}
{"smiles": "CCCCC(=O)NC(=S)Nc1nnn(CCC)n1", "Potency": "active: 0.562 µM"}
{"smiles": "O=C1/C(=C\\c2ccc([N+](=O)[O-])cc2)CCc2ccccc21", "Potency": "inconclusive [activator, single point]"}
{"smiles": "COc1ccc(C(=O)NC(=S)NCC2CCCO2)cc1", "note": "(stereo not given)", "Potency": "inconclusive [inhibitor, single point]"}
{"smiles": "CCN(CC)c1ccc(N=Nc2nn(C)c(C)c2[N+](=O)[O-])cc1", "Potency": "inconclusive [inhibitor, partial curve]"}
{"smiles": "OC(c1cc(-c2ccc(Cl)cc2)nc2ccccc12)C1CCCCN1", "note": "(stereo not given)", "Potency": "inconclusive [inhibitor, single point]"}
{"smiles": "O=c1c2ccccc2c(C=Nc2ccc(S(=O)(=O)Nc3ncccn3)cc2)c(O)n1-c1cccc(Cl)c1", "activity, negative = inhibition": "inactive: -0.766%"}
{"smiles": "CC(NC(=O)CN(C)Cc1cccc(Cl)c1)c1ccccc1", "note": "(stereo not given)", "activity, negative = inhibition": "inactive: 14.3%"}
{"smiles": "O=C(N/N=C\\c1ccco1)c1cncc(Br)c1", "Potency": "inconclusive [inhibitor, single point]"}
{"smiles": "Cc1cc2c(cc(C(=O)NCCCN3CCOCC3)n2Cc2ccc(Cl)cc2)o1", "Potency": "active: 10 µM"}
{"smiles": "CCCn1cnc2cc(NCc3ccc(Br)cc3)ccc21", "Potency": "inconclusive [inhibitor, single point]"}
{"smiles": "Cc1noc(C)c1-c1ccc2ncnc(NCc3cccc(-c4ccccc4)c3)c2c1", "Potency": "inconclusive [inhibitor, single point]"}
{"smiles": "S=C(NCCc1ccccn1)Nc1cccc(Cl)c1", "Potency": "active: 7.94 µM"}
{"smiles": "CCOc1ccc(NC(=S)N(Cc2ccc(N(C)C)cc2)Cc2ccco2)cc1", "Potency": "active: 31.6 µM"}
{"smiles": "CCOc1ccccc1C1CC(=O)Nc2cc3c(cc21)OCO3", "note": "(stereo not given)", "Potency": "inconclusive [inhibitor, single point]"}
{"smiles": "COc1cccc([C@@H]2Oc3ccc(Br)cc3C(=O)[C@H]2OC(=O)NCCc2ccc(OC)c(OC)c2)c1", "Potency": "inconclusive [inhibitor, partial curve]"}
{"smiles": "CC1N(C)c2cc(NC(=O)c3ccco3)ccc2C1(C)C", "note": "(stereo not given)", "Potency": "inconclusive [inhibitor, single point]"}
{"smiles": "CNC(=S)Nc1ccc(C23CC4CC(CC(C4)C2)C3)cc1", "Potency": "active: 1.26 µM"}
{"smiles": "O=C(Nc1cccc(Cl)c1)N1CCN(C2c3ccccc3-c3ccccc32)CC1", "Potency": "inconclusive [inhibitor, partial curve, poor fit]"}
{"smiles": "Cc1ccccc1N=Nc1c(C)[nH]n(C(N)=S)c1=O", "Potency": "active: 1 µM"}
{"smiles": "Cc1c(C)c(C)c2[nH]c(=S)[nH]c2c1C", "Potency": "active: 10 µM"}
{"smiles": "CCOc1ccc(-c2cc(C(=O)O)c3ccccc3n2)cc1", "Potency": "active: 10 µM"}
{"smiles": "CCOc1cc2nc(-c3ccc(OC)c(OC)c3)nc(NCCCN3CCOCC3)c2cc1OC", "activity, negative = inhibition": "inactive: -17.8%"}
{"smiles": "CCCn1cc(S(=O)(=O)c2ccc(OC)cc2)c(=O)c2cc(OCC)ccc21", "activity, negative = inhibition": "inactive: -4.52%"}
{"smiles": "C=C(C)CSc1cc(C)nc2c(-c3ccccc3)c(C)nn12", "Potency": "inconclusive [inhibitor, single point]"}
{"smiles": "Cc1ccc(NC(C)C(=O)N/N=C/c2ccc([N+](=O)[O-])s2)cc1", "note": "(stereo not given)", "Potency": "inconclusive [inhibitor, single point]"}
{"smiles": "O=C(Cc1ccccc1)Nc1nnc(-c2ccccc2)o1", "Potency": "active: 3.55 µM"}
{"smiles": "COc1ccccc1NC(=O)Cn1c(C)cc(=O)c2cccc(OC)c21", "Potency": "active: 28.2 µM"}
{"smiles": "CCN(CC)C(=O)c1[nH]cnc1C(=O)NCC(=O)OCc1ccccc1", "activity, negative = inhibition": "inactive: 2.29%"}
{"smiles": "COc1ccccc1-c1nc(SCC(=O)Nc2ccccc2F)n[nH]1", "activity, negative = inhibition": "inactive: 16%"}
{"smiles": "O=C(C1=C(c2ccccc2)C(=O)c2ccccc2C1=O)c1ccccc1", "Potency": "active: 11.2 µM"}
{"smiles": "CCOc1ccc2c(c1)C(=O)C(=O)N2CC1COc2ccccc2O1", "note": "(stereo not given)", "activity, negative = inhibition": "inactive: -6.4%"}
{"smiles": "Cc1cc(N2CCN(C/C=C/c3ccccc3)CC2)n2ncnc2n1", "Potency": "inconclusive [inhibitor, single point]"}
{"smiles": "CN1CCN(C(=S)c2cn(CCOc3ccccc3)c3ccccc23)CC1", "Potency": "inconclusive [inhibitor, single point]"}
{"smiles": "Cc1cc(C)cc(NC(=S)N2CC(C)OC(C)C2)c1", "note": "(stereo not given)", "Potency": "inconclusive [inhibitor, single point]"}
{"smiles": "CCOc1ccc(S(=O)(=O)n2cc(F)c(=O)[nH]c2=O)cc1", "activity, negative = inhibition": "inactive: -1.53%"}
{"smiles": "Nc1nc(Nc2ccccc2)sc1C(=O)c1ccccc1", "Potency": "inconclusive [inhibitor, single point]"}
{"smiles": "CCc1ccc(/C=N/NC(=O)c2cc(C)on2)s1", "Potency": "active: 5.62 µM"}
{"smiles": "O=C1CC(N2CCCCCC2)C(=O)N1c1ccc(F)cc1", "note": "(stereo not given)", "Potency": "inconclusive [inhibitor, single point]"}
{"smiles": "Cn1c(-c2c(N)n(-c3ccccc3)c3nc4ccccc4nc23)nc2ccccc21", "Potency": "active: 3.55 µM"}
{"smiles": "Cn1nnnc1SC1CC(=O)N(c2ccccc2)C1=O", "note": "(stereo not given)", "Potency": "inconclusive [inhibitor, single point]"}
{"smiles": "c1ccc(-c2ccc3c(c2)c2c4n3CCN=C4CCC2)cc1", "Potency": "inconclusive [inhibitor, partial curve]"}
{"smiles": "Cc1[nH]n(-c2ccccc2)c(=S)c1C=NCCCN=Cc1c(C)[nH]n(-c2ccccc2)c1=S", "Potency": "active: 1.78 µM"}
{"smiles": "CC(=O)SC1CC(=O)N(c2c(C)cccc2C)C1=O", "note": "(stereo not given)", "Potency": "inconclusive [inhibitor, single point]"}
{"smiles": "Cc1ccc(NC(=O)C(OC(=O)c2ccc(C=O)cc2)c2ccccc2)cc1Cl", "note": "(stereo not given)", "Potency": "inconclusive [inhibitor, partial curve, poor fit]"}
